Measured values reported in the supplement of paper PMC10126150.
Values marked as one replicate rest on one cluster of the flow cell; about a third of the high ones do not repeat.
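Also: ATP exposure 15 min at 22 °C before imaging.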

What follows are sequences tested on ATP (assay: switch fluorescence ratio, 500 uM ATP over buffer (Cy3 cluster intensity, sum of 5 cycles each) (fold (ratio)); higher = stronger signal-on switching upon ATP binding; sequences stand for … in TCGTCGGCAGCGTCAGATGTGTATAAGAGACAGTTTTTTTTTTTTTTTTTTTTTTTTT…TC). Conditions: aptamer strand: ATP DNA aptamer (quencher-CACCTGGGGGAGTATTGCGGAGGAAGG + anchor), 100 nM annealed; ATP concentration: 500 uM; one replicate.
In short: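 Cy3-labelled switching-strand clusters on a modified Illumina MiSeq flow-cell were annealed to 100 nM quencher-labelled ATP aptamer and imaged first in selection buffer, then after 15 min with 500 uM ATP at 22 °C. NaOH stripping and re-annealing separated each of five buffer/ATP cycles, and clusters outside 100-1000 RFU were excluded. The fluorescence ratio sums target-cycle Cy3 intensity over buffer-cycle Cy3 intensity per cluster and averages it per switch-domain sequence.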
In the case of AGGTGTATTT, the switch fluorescence ratio is reported as 1.01. AGGTGTTCAT was tested, and the switch fluorescence ratio was 0.978. Work on AGGTTAAGAG yielded a switch fluorescence ratio of 1.01. AGGTTAGCAC showed a switch fluorescence ratio of 1. For AGGTTAGTT, the switch fluorescence ratio was 1.01. In the case of AGGTTATACA, the switch fluorescence ratio is reported as 1.02. AGGTTCCGAG was tested, and the switch fluorescence ratio was 1.1. With AGGTTCCGCG the switch fluorescence ratio was 1.12. AGGTTCTCGA gave a switch fluorescence ratio of 0.986. With AGGTTGATTG the switch fluorescence ratio was 0.986. AGGTTGGAAT gave a switch fluorescence ratio of 1.01. AGGTTTAGGC showed a switch fluorescence ratio of 1.03. In the case of AGTAAACGAG, the switch fluorescence ratio is reported as 1.02. Work on AGTAAAGGGG yielded a switch fluorescence ratio of 0.957. Sequence AGTAAATCGA has a switch fluorescence ratio of 1.11. In the case of AGTAACGTCC, the switch fluorescence ratio is reported as 1.01. AGTAAGTCGT gave a switch fluorescence ratio of 0.978. For AGTAAGTGTG, the switch fluorescence ratio was 1.02. For AGTAATTCCG, the switch fluorescence ratio was 0.979. Sequence AGTAATTCTA has a switch fluorescence ratio of 1. With AGTAGAATTT the switch fluorescence ratio was 0.973. Work on AGTAGACTCT yielded a switch fluorescence ratio of 1. Work on AGTAGATCTG yielded a switch fluorescence ratio of 1. Sequence AGTAGCCGA has a switch fluorescence ratio of 1.02. AGTAGCTGAT showed a switch fluorescence ratio of 1. AGTAGGTGAG was tested, and the switch fluorescence ratio was 0.996. Work on AGTAGTAGAC yielded a switch fluorescence ratio of 0.96. For AGTAGTTGAC, the switch fluorescence ratio was 0.994. AGTATAAGTT was tested, and the switch fluorescence ratio was 1.01. Work on AGTATAGTAC yielded a switch fluorescence ratio of 1.07. AGTATATTAC showed a switch fluorescence ratio of 1.03. AGTATCGGCG was tested, and the switch fluorescence ratio was 0.918. AGTATGAGAG was tested, and the switch fluorescence ratio was 0.975. AGTATGTAGT showed a switch fluorescence ratio of 0.996. With AGTATTACGA the switch fluorescence ratio was 1.03. With AGTATTTAAG the switch fluorescence ratio was 1.04. With AGTATTTGAA the switch fluorescence ratio was 0.927. AGTCAAAAGG showed a switch fluorescence ratio of 1.04. Work on AGTCAAGTAA yielded a switch fluorescence ratio of 1.01. For AGTCAAGTTC, the switch fluorescence ratio was 1.02. AGTCAATGGA showed a switch fluorescence ratio of 1.01. With AGTCAATTCG the switch fluorescence ratio was 1. Sequence AGTCAGACAA has a switch fluorescence ratio of 1.02. For AGTCAGAGCG, the switch fluorescence ratio was 1.03. For AGTCAGCTGC, the switch fluorescence ratio was 1.03. AGTCAGGCGG was tested, and the switch fluorescence ratio was 1.03. AGTCAGTGGG was tested, and the switch fluorescence ratio was 0.954. For AGTCATTATT, the switch fluorescence ratio was 1.05. Work on AGTCCAATTG yielded a switch fluorescence ratio of 1. Work on AGTCCACAAA yielded a switch fluorescence ratio of 1.09. AGTCCCAACC gave a switch fluorescence ratio of 0.996. In the case of AGTCCCGTAC, the switch fluorescence ratio is reported as 1.1. AGTCCGGAC showed a switch fluorescence ratio of 1.02. In the case of AGTCGAAGCC, the switch fluorescence ratio is reported as 1.03. With AGTCGCAGCG the switch fluorescence ratio was 0.957. AGTCGCCACG was tested, and the switch fluorescence ratio was 0.986. AGTCGCCCTT was tested, and the switch fluorescence ratio was 1.01. AGTCGCCGT gave a switch fluorescence ratio of 0.978. AGTCGGAGGG gave a switch fluorescence ratio of 1.02. AGTCGGTCAT was tested, and the switch fluorescence ratio was 1.04. AGTCGTGATC gave a switch fluorescence ratio of 1.05. In the case of AGTCGTGGGG, the switch fluorescence ratio is reported as 0.983. Sequence AGTCGTGTGA has a switch fluorescence ratio of 1.02. AGTCGTTG was tested, and the switch fluorescence ratio was 1. AGTCTAAGTC gave a switch fluorescence ratio of 0.967. AGTCTAATAA showed a switch fluorescence ratio of 1.05. AGTCTATTC was tested, and the switch fluorescence ratio was 0.991. AGTCTGGAGT was tested, and the switch fluorescence ratio was 0.985. Work on AGTCTGGATT yielded a switch fluorescence ratio of 1.02. AGTCTTTCTC gave a switch fluorescence ratio of 1.02. With AGTGAACGGT the switch fluorescence ratio was 1.04. With AGTGACCCG the switch fluorescence ratio was 0.971. With AGTGACTCAT the switch fluorescence ratio was 1.04. Work on AGTGAGAAAG yielded a switch fluorescence ratio of 0.986. Sequence AGTGATACGG has a switch fluorescence ratio of 1.07. In the case of AGTGATATCT, the switch fluorescence ratio is reported as 1.03. For AGTGATGTAT, the switch fluorescence ratio was 0.959. Sequence AGTGATTAGG has a switch fluorescence ratio of 0.931. AGTGCAG gave a switch fluorescence ratio of 1. For AGTGCCTTC, the switch fluorescence ratio was 1.11. AGTGCGTCCC gave a switch fluorescence ratio of 0.967. Sequence AGTGCTCATG has a switch fluorescence ratio of 0.993. Work on AGTGCTGTAC yielded a switch fluorescence ratio of 1.26. Sequence AGTGGACGAA has a switch fluorescence ratio of 0.999. With AGTGGAGGCA the switch fluorescence ratio was 0.963. AGTGGCAACT showed a switch fluorescence ratio of 1.02. AGTGGCATAT gave a switch fluorescence ratio of 0.981. AGTGGCCTG gave a switch fluorescence ratio of 1.02. In the case of AGTGGCGACT, the switch fluorescence ratio is reported as 1.02. AGTGGCGCCG was tested, and the switch fluorescence ratio was 1.01. AGTGGCGGCC gave a switch fluorescence ratio of 0.997. With AGTGGCGTTT the switch fluorescence ratio was 1.05. In the case of AGTGGGAATA, the switch fluorescence ratio is reported as 1.01. With AGTGGGCAAT the switch fluorescence ratio was 1.16. Sequence AGTGGGTCGC has a switch fluorescence ratio of 0.981. AGTGGTATTA was tested, and the switch fluorescence ratio was 0.986. AGTGGTGTCG gave a switch fluorescence ratio of 0.889. For AGTGTAATTG, the switch fluorescence ratio was 1.02. AGTGTACTGA was tested, and the switch fluorescence ratio was 1.02. Work on AGTGTATGGA yielded a switch fluorescence ratio of 0.998. For AGTGTCACCG, the switch fluorescence ratio was 0.986. In the case of AGTGTGACGG, the switch fluorescence ratio is reported as 1.02. With AGTGTTGCGT the switch fluorescence ratio was 0.943. Work on AGTGTTTTAT yielded a switch fluorescence ratio of 1.01. For AGTTAAATCG, the switch fluorescence ratio was 1.02. In the case of AGTTACAGC, the switch fluorescence ratio is reported as 1.01. For AGTTACCTTC, the switch fluorescence ratio was 1.4. In the case of AGTTACGCAC, the switch fluorescence ratio is reported as 1.86. AGTTACTAGA gave a switch fluorescence ratio of 1.03. For AGTTAGTCTT, the switch fluorescence ratio was 0.956. For AGTTAGTTGC, the switch fluorescence ratio was 0.999. With AGTTATCT the switch fluorescence ratio was 0.991. For AGTTATCTAT, the switch fluorescence ratio was 1.03. In the case of AGTTATTCGG, the switch fluorescence ratio is reported as 1.01. For AGTTATTGGT, the switch fluorescence ratio was 0.991. AGTTCAGTGG gave a switch fluorescence ratio of 1.03. With AGTTCCCCTG the switch fluorescence ratio was 1.13. Sequence AGTTCCCGCA has a switch fluorescence ratio of 1.83. Sequence AGTTCCTTA has a switch fluorescence ratio of 1. AGTTCGAAGC was tested, and the switch fluorescence ratio was 1.31. AGTTCGCCGC was tested, and the switch fluorescence ratio was 0.974. Sequence AGTTCTGTAA has a switch fluorescence ratio of 0.985. In the case of AGTTCTTGCC, the switch fluorescence ratio is reported as 1.03. AGTTGACGGC gave a switch fluorescence ratio of 0.985. Sequence AGTTGATTCA has a switch fluorescence ratio of 0.996. With AGTTGCACTA the switch fluorescence ratio was 0.959. In the case of AGTTGCGGCC, the switch fluorescence ratio is reported as 0.997. For AGTTGCTCAG, the switch fluorescence ratio was 0.989. Sequence AGTTGCTGCG has a switch fluorescence ratio of 0.983. AGTTGGATAC showed a switch fluorescence ratio of 1.03. AGTTGGGAG showed a switch fluorescence ratio of 1.01. AGTTGGGCTG showed a switch fluorescence ratio of 1.05. AGTTGGTC gave a switch fluorescence ratio of 0.996. AGTTGTAATA gave a switch fluorescence ratio of 0.97. AGTTGTATCA gave a switch fluorescence ratio of 0.944. For AGTTGTCATG, the switch fluorescence ratio was 0.978. AGTTGTTCTT was tested, and the switch fluorescence ratio was 0.959. For AGTTTATATA, the switch fluorescence ratio was 1.02. AGTTTCAGCA showed a switch fluorescence ratio of 1. AGTTTGATCA showed a switch fluorescence ratio of 0.965. AGTTTGGAA showed a switch fluorescence ratio of 0.998. Work on AGTTTGGCTA yielded a switch fluorescence ratio of 0.989. AGTTTTAACT was tested, and the switch fluorescence ratio was 0.958. AGTTTTCAG gave a switch fluorescence ratio of 1. Work on AGTTTTTAGT yielded a switch fluorescence ratio of 0.966. Work on ATAAAAAACC yielded a switch fluorescence ratio of 1.12. In the case of ATAAAAGCAT, the switch fluorescence ratio is reported as 0.981. For ATAAAAGTGG, the switch fluorescence ratio was 1. In the case of ATAAACTCGA, the switch fluorescence ratio is reported as 0.996. Work on ATAAAGAGAA yielded a switch fluorescence ratio of 1. With ATAAAGGGC the switch fluorescence ratio was 1.01. Sequence ATAAAGGTAA has a switch fluorescence ratio of 0.979. In the case of ATAAAGTCAG, the switch fluorescence ratio is reported as 0.984. Work on ATAAATAAAT yielded a switch fluorescence ratio of 0.998. Work on ATAAATAACG yielded a switch fluorescence ratio of 1.01. Sequence ATAAATAGGC has a switch fluorescence ratio of 1.07. Work on ATAACACCTT yielded a switch fluorescence ratio of 1.24. For ATAACGAAGC, the switch fluorescence ratio was 1.03. ATAACTAGGA gave a switch fluorescence ratio of 0.992. For ATAAGCAAAT, the switch fluorescence ratio was 1.07. ATAAGCAACA showed a switch fluorescence ratio of 1.08. In the case of ATAAGCGACG, the switch fluorescence ratio is reported as 1.05. Work on ATAAGGATGC yielded a switch fluorescence ratio of 1. ATAAGGTGCG was tested, and the switch fluorescence ratio was 1.04. Sequence ATAAGGTGTG has a switch fluorescence ratio of 0.981. Work on ATAAGGTGTT yielded a switch fluorescence ratio of 1.13. With ATAAGTGAGC the switch fluorescence ratio was 0.994. Work on ATAAGTGTCG yielded a switch fluorescence ratio of 0.966. Sequence ATAAGTGTTC has a switch fluorescence ratio of 0.959. ATAATAAAGT was tested, and the switch fluorescence ratio was 0.961. Sequence ATAATACTTG has a switch fluorescence ratio of 0.996. In the case of ATAATAGACG, the switch fluorescence ratio is reported as 1.07. Sequence ATAATAGATG has a switch fluorescence ratio of 1.02. For ATAATATG, the switch fluorescence ratio was 0.969. ATAATCCTCT gave a switch fluorescence ratio of 1.02. ATAATGACCG showed a switch fluorescence ratio of 0.987. For ATAATGGTCT, the switch fluorescence ratio was 1.07. For ATAATGTGCG, the switch fluorescence ratio was 0.998. Sequence ATAATTATTG has a switch fluorescence ratio of 1. With ATAATTGAGG the switch fluorescence ratio was 1.03. Sequence ATAATTGGAG has a switch fluorescence ratio of 0.992. ATAATTTCCG showed a switch fluorescence ratio of 1.01. In the case of ATAATTTGCA, the switch fluorescence ratio is reported as 0.974. Sequence ATAATTTTTC has a switch fluorescence ratio of 0.988. Sequence ATACACGGTA has a switch fluorescence ratio of 1.09. ATACAGGGTT was tested, and the switch fluorescence ratio was 1.09. ATACAGTTTG showed a switch fluorescence ratio of 1.06. Sequence ATACATCAGC has a switch fluorescence ratio of 1.02. With ATACCCAACT the switch fluorescence ratio was 1.12. Work on ATACCCCGCA yielded a switch fluorescence ratio of 2.01. Sequence ATACCGTAT has a switch fluorescence ratio of 1.06. ATACCGTTAC showed a switch fluorescence ratio of 1.61. With ATACCTAACT the switch fluorescence ratio was 1.19. For ATACGAGTTG, the switch fluorescence ratio was 0.983. ATACGAGTTT was tested, and the switch fluorescence ratio was 1.02. Sequence ATACGCTGT has a switch fluorescence ratio of 1.06. ATACGGCACA gave a switch fluorescence ratio of 1.42. Work on ATACGGTG yielded a switch fluorescence ratio of 1.02. ATACGTCGGA showed a switch fluorescence ratio of 1. Sequence ATACTAACTT has a switch fluorescence ratio of 1.04. In the case of ATACTACTCA, the switch fluorescence ratio is reported as 1.04.
